# Measurements taken from the supplement of paper PMC8728848.
# The list shows a part of the results.
# Legend:
# Experiment in all cases: glycan array binding signal (z-score within array); higher = stronger binding
# Details in all cases: glycan notation: IUPAC condensed, linker removed
# [1] = target: GlcNAc(b1-2)Gal(b1-3)GalNAc
# Procedure, shortened: (§1)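 The binding signal is a Z-score computed within each array. Data were drawn from 3228 arrays in the Consortium for Functional Glycomics database, restricted to those with a known protein sequence. Scores were averaged over arrays of the same protein sequence at different concentrations or buffers, and over linkers, and negative values can be taken as non-binding.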
# [2] = target: GlcNAc(b1-2)Man(a1-3)[GlcNAc(b1-2)Man(a1-6)]Man(b1-4)GlcNAc(b1-4)GlcNAc
# Procedure, shortened: as §1
# [3] = target: GlcNAc(b1-2)Man(a1-3)[GlcNAc(b1-2)Man(a1-6)]Man(b1-4)GlcNAc(b1-4)[Fuc(a1-6)]GlcNAc
# Procedure, shortened: as §1
# [4] = target: GlcNAc(b1-2)[GlcNAc(b1-4)]Man(a1-3)[GlcNAc(b1-2)Man(a1-6)]Man(b1-4)GlcNAc(b1-4)GlcNAc
# Procedure, shortened: as §1
# [5] = target: GlcNAc(b1-3)Gal
# Procedure, shortened: as §1
# [6] = target: GlcNAc(b1-3)Gal(b1-3)GalNAc
# Procedure, shortened: as §1
# [7] = target: GlcNAc(b1-3)Gal(b1-4)Glc
# Procedure, shortened: as §1
# [8] = target: GlcNAc(b1-3)Gal(b1-4)GlcNAc
# Procedure, shortened: as §1
# [9] = target: GlcNAc(b1-3)Gal(b1-4)GlcNAc(b1-3)Gal(b1-4)GlcNAc
# Procedure, shortened: as §1
# [10] = target: GlcNAc(b1-3)GalNAc
# Procedure, shortened: as §1
# [11] = target: GlcNAc(b1-3)Man
# Procedure, shortened: as §1
# [12] = target: GlcNAc(b1-3)[GlcNAc(b1-4)][GlcNAc(b1-6)]GlcNAc
# Procedure, shortened: as §1
# [13] = target: GlcNAc(b1-3)[GlcNAc(b1-6)]Gal(b1-4)GlcNAc
# Procedure, shortened: as §1
# [14] = target: GlcNAc(b1-3)[GlcNAc(b1-6)]GalNAc
# Procedure, shortened: as §1
# [15] = target: GlcNAc(b1-4)Gal(b1-4)GlcNAc
# Procedure, shortened: as §1
# [16] = target: GlcNAc(b1-4)GlcNAc
# Procedure, shortened: as §1
# [17] = target: GlcNAc(b1-4)GlcNAc(b1-4)GlcNAc
# Procedure, shortened: as §1
# [18] = target: GlcNAc(b1-4)GlcNAc(b1-4)GlcNAc(b1-4)GlcNAc(b1-4)GlcNAc
# Procedure, shortened: as §1
# [19] = target: GlcNAc(b1-4)GlcNAc(b1-4)GlcNAc(b1-4)GlcNAc(b1-4)GlcNAc(b1-4)GlcNAc
# Procedure, shortened: as §1
# [20] = target: GlcNAc(b1-4)[GlcNAc(b1-6)]GalNAc
# Procedure, shortened: as §1
# [21] = target: GlcNAc(b1-6)Gal(b1-4)GlcNAc
# Procedure, shortened: as §1
# [22] = target: GlcNAc(b1-6)GalNAc
# Procedure, shortened: as §1
# [23] = target: GlcNAc3Prop(b1-4)GlcNAc
# Procedure, shortened: as §1
# [24] = target: GlcNAc6S(b1-3)Gal(b1-4)GlcNAc
# Procedure, shortened: as §1
# [25] = target: Kdn(a2-3)Gal(b1-3)GalNAc
# Procedure, shortened: as §1
# [26] = target: Kdn(a2-3)Gal(b1-3)GlcNAc
# Procedure, shortened: as §1
# [27] = target: Kdn(a2-3)Gal(b1-4)Glc
# Procedure, shortened: as §1
# [28] = target: Kdn(a2-3)Gal(b1-4)GlcNAc
# Procedure, shortened: as §1
# [29] = target: Kdn(a2-3)Gal(b1-4)[Fuc(a1-3)]GlcNAc
# Procedure, shortened: as §1
# [30] = target: Kdn(a2-6)Gal(b1-4)GlcNAc
# Procedure, shortened: as §1
# [31] = target: Man(a1-2)Man(a1-2)Man(a1-3)Man
# Procedure, shortened: as §1
# [32] = target: Man(a1-2)Man(a1-2)Man(a1-6)[Man(a1-3)]Man
# Procedure, shortened: as §1
# [33] = target: Man(a1-2)Man(a1-3)Man
# Procedure, shortened: as §1
# [34] = target: Man(a1-2)Man(a1-3)[Man(a1-2)Man(a1-6)]Man
# Procedure, shortened: as §1
# [35] = target: Man(a1-2)Man(a1-3)[Man(a1-2)Man(a1-6)]Man(a1-6)[Man(a1-2)Man(a1-2)Man(a1-3)]Man
# Procedure, shortened: as §1
# [36] = target: Man(a1-2)Man(a1-3)[Man(a1-2)Man(a1-6)]Man(a1-6)[Man(a1-2)Man(a1-2)Man(a1-3)]Man(b1-4)GlcNAc(b1-4)GlcNAc
# Procedure, shortened: as §1
# [37] = target: Man(a1-2)Man(a1-3)[Man(a1-6)]Man(a1-6)[Man(a1-2)Man(a1-3)]Man(b1-4)GlcNAc(b1-4)GlcNAc
# Procedure, shortened: as §1
# [38] = target: Man(a1-2)Man(a1-6)[Man(a1-3)]Man(a1-6)[Man(a1-2)Man(a1-2)Man(a1-3)]Man
# Procedure, shortened: as §1
binder,measurement,setting,value
"exo-alpha-sialidase (Propionibacterium acnes), Q6A7G1 (protein) GSHMSGRAPAPVAATTQPKLVTGDITSTDQSGTNLFFGKKIVRNARGAIMKVDRTWPAAVPAPLPDVRADSSTRMLLGPVVDLAVNEHPEGVFYRIPALATASNGDLLASYDLRPGSAGDAPNPNSIVQRRSRDNGRTWGPQTVIHAGTPGRRKVGYSDPSYLVDPATGRILNFHVKSYDRGFATSEVGTDPDDRHVLHAEVSTSTDNGHTWTHRDITREITSDPTTRTRFVASGQGIALLHGPHAGRLIAQMTVRNSVGQQAQSIYSDDHGITWHAGNPVGRMMDENKVVELSDGTLMLNSRDAARSGRRKVAYSQDGGLTWGPVKLVDDLIDPTNNAQIIRAYPNARAGSAKARILLFTNARNATERVNGTLSVSCDDGRTWVSHQTYMPGEVGYTTAAVQSDGALGVLWERDGIRYSTIPMGWLNSVCPLAPSGRPTSGKPTSGTSLPPTAT",glycan array binding signal (z-score),[1],-0.326
same,glycan array binding signal (z-score),[2],-0.369
same,glycan array binding signal (z-score),[3],-0.33
same,glycan array binding signal (z-score),[4],-0.373
same,glycan array binding signal (z-score),[5],-0.363
same,glycan array binding signal (z-score),[6],-0.279
same,glycan array binding signal (z-score),[7],-0.353
same,glycan array binding signal (z-score),[8],-0.344
same,glycan array binding signal (z-score),[9],-0.356
same,glycan array binding signal (z-score),[10],-0.358
same,glycan array binding signal (z-score),[11],-0.338
same,glycan array binding signal (z-score),[12],-0.355
same,glycan array binding signal (z-score),[13],-0.367
same,glycan array binding signal (z-score),[14],-0.368
same,glycan array binding signal (z-score),[15],-0.362
same,glycan array binding signal (z-score),[16],-0.364
same,glycan array binding signal (z-score),[17],-0.37
same,glycan array binding signal (z-score),[18],-0.243
same,glycan array binding signal (z-score),[19],-0.341
same,glycan array binding signal (z-score),[20],-0.375
same,glycan array binding signal (z-score),[21],-0.291
same,glycan array binding signal (z-score),[22],-0.33
same,glycan array binding signal (z-score),[23],-0.35
same,glycan array binding signal (z-score),[24],-0.329
same,glycan array binding signal (z-score),[25],-0.265
same,glycan array binding signal (z-score),[26],-0.321
same,glycan array binding signal (z-score),[27],-0.283
same,glycan array binding signal (z-score),[28],-0.343
same,glycan array binding signal (z-score),[29],-0.23
same,glycan array binding signal (z-score),[30],-0.332
same,glycan array binding signal (z-score),[31],-0.358
same,glycan array binding signal (z-score),[32],-0.365
same,glycan array binding signal (z-score),[33],-0.339
same,glycan array binding signal (z-score),[34],-0.348
same,glycan array binding signal (z-score),[35],-0.359
same,glycan array binding signal (z-score),[36],-0.344
same,glycan array binding signal (z-score),[37],-0.356
same,glycan array binding signal (z-score),[38],-0.355
